# About 1,100 (0.39%) of roughly 280,000 compounds were called active. Inconclusive means that the source gave no clear call. Such entries were picked first, then a sample of the others. The call rests on the fitted dose curve; in most records, active means well fitted inhibition curve with a large enough effect; inconclusive means small, poorly fitted or top-dose-only effect, or effect the other way; inactive means flat fitted curve, though single readings scatter. Potencies of inconclusive entries are left out as doubtful fits. Where a SMILES comes first, the peptide text is derived from it. [ ]: non-standard residue; d: D form. ξ: configuration not given here. ξF = NC(Cc1ccccc1)C(=O)O
# Target: Microtubule-associated protein tau (Homo sapiens) (UniProt P10636)
# UniProt P10636, sequence (P10636 whole entry, looked up): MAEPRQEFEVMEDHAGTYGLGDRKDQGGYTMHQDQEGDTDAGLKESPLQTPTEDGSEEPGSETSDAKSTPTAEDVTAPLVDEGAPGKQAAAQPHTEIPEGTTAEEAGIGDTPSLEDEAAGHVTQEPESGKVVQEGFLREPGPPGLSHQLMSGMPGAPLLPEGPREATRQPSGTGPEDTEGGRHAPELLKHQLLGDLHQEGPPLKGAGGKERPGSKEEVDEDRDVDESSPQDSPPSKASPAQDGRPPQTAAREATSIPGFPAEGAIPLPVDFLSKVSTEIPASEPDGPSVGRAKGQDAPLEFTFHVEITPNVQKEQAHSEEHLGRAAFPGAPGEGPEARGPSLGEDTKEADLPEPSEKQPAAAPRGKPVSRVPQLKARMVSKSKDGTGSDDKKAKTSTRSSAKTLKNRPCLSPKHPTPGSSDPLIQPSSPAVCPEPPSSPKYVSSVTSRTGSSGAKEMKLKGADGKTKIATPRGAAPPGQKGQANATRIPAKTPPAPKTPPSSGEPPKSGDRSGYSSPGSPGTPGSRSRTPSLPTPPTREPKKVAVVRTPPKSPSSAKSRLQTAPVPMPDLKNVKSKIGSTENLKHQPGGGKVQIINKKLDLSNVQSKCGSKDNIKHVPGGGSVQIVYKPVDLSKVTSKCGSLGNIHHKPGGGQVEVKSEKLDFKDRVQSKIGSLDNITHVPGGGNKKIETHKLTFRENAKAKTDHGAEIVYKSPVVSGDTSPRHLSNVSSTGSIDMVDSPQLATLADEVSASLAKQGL
# Experiment: qHTS for Inhibitors of Tau Fibril Formation, Fluorescence Polarization; further: nearly all actives have a fitted effect of over 55% in size
# Details: K18 P301L tau heparin fibrillization, Alexa594 FP, 6 h; series mostly up to 57.7 µM
# Method in brief: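 Human K18 P301L fragment (15 uM unlabeled plus 0.24 uM Alexa 594-labeled) in 100 mM sodium acetate pH 7 with compound, aggregation induced by 20 uM heparin for 6 hr at 37 C. ThT (30 uM) added for 1 hr, then Alexa 594 FP read.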
# On the % scale 0 is the no-effect control and ±100 the full control effect; potency means the concentration at half of the fitted maximal effect; tags describe the fitted curve by direction and shape.
SMILES,Potency,"activity, negative = inhibition"
COc1ccc(-c2cc(-c3ccccc3)nc(-c3ccc4c(c3)NC(=O)CO4)c2)cc1,"inconclusive [inhibitor, partial curve]",
CCc1ccc(NC(=O)Cn2c(=O)n(Cc3nc(C)no3)c(=O)c3cc4c(cc32)OCO4)cc1,"inconclusive [inhibitor, single point]",
COc1ccc(N2CCN(C(=O)c3ccc(NC(=O)c4nsc5ccccc45)cc3)CC2)cc1,"inconclusive [activator, partial curve]",
COc1ccc(C(=O)CC(Nc2ccc([N+](=O)[O-])cc2)c2ccc(OC)cc2)cc1 (centres undefined),"inconclusive [inhibitor, partial curve, poor fit]",
CCOC(=O)N1CCC(N2Cc3cccc(C(=O)NC(C)c4ccc5c(c4)OCCO5)c3C2=O)CC1 (centres undefined),"inconclusive [activator, single point]",
CCOC(=O)N1CCN(C(=O)C(=O)NN)CC1,inactive,
NC(=O)c1ccc(OCC(F)(F)C(F)(F)C(F)(F)C(F)(F)C(F)(F)C(F)F)cc1,"inconclusive [inhibitor, single point]",
Cc1nn(Cc2ccccc2Cl)c(C)c1NC(=O)c1nc2ncccn2n1,"inconclusive [inhibitor, partial curve, poor fit]",
N#C/C(C(N)=O)=C1/SC(Cc2ccc(F)cc2)C(=O)N1c1ccccc1 (centres undefined),"inconclusive [inhibitor, single point]",
O=C(CSc1ccc(-c2ccco2)nn1)NCCc1ccccc1,inactive,
Cc1ccc(C(=O)N2CCN(c3ccc([N+](=O)[O-])c(NCc4cccnc4)c3)CC2)cc1,inactive,
Cc1oc(=O)c(NC(=O)c2ccccc2)cc1C(=O)c1ccccc1,"inconclusive [inhibitor, partial curve]",
Nc1nc(-c2ccc(Cl)cc2)c(N=Nc2ccc(S(=O)(=O)N3CCOCC3)cc2)s1,"inconclusive [activator, partial curve]",
CCn1c2ccccc2c2nnc(NN)nc21,"inconclusive [inhibitor, single point]",
CC(=O)NCC(=O)NC(Cc1ccccc1)C(N)=O (centres undefined) (Ac-Gly-[ξF]-NH2),"inconclusive [inhibitor, full curve, poor fit]",
O=C(c1cccc(Br)c1)c1cn(-c2ccccc2)nc1C(=O)c1ccccc1,"inconclusive [inhibitor, partial curve]",
COc1cc(C)c(NC(=O)C(=S)NCCc2ccccc2)cc1C,inactive,
Cc1ccc(C(=O)NC(=S)Nc2cccc3nsnc23)cc1,"inconclusive [inhibitor, full curve, poor fit]",
CC(C)(C)C1CCc2c(sc(N)c2C(N)=O)C1 (centres undefined),"inconclusive [inhibitor, partial curve]",
O=C(Nc1ccc(Oc2ccc(NC(=O)c3ccco3)c(NC(=O)c3ccco3)c2)cc1)c1ccco1,"inconclusive [inhibitor, partial curve]",
CCOc1ccc(C(=O)NC(=S)Nc2ccccc2OC)cc1[N+](=O)[O-],"inconclusive [inhibitor, partial curve]",
Cc1snc(SCC(=O)c2ccc([N+](=O)[O-])cc2)c1C#N,"inconclusive [inhibitor, partial curve]",

SMILES,Potency,"activity, negative = inhibition"
O=C(COc1ccc(-c2ccccc2)cc1)N/N=C/c1ccccc1Br,"inconclusive [inhibitor, single point]",
O=C(CNC(=O)c1ccccc1C(=O)O)c1ccccc1,inactive,
Cc1ccc(NC(=O)Cn2c(=O)n(CC3CCC(C(=O)NC(C)C)CC3)c(=O)c3sccc32)cc1 (centres undefined),inactive,
O=C(Nc1nccs1)c1ccc(-c2ccc(F)cc2)o1,"inconclusive [inhibitor, single point]",
CCCCC1=CC2=C(c3ccco3)C(=O)C(C)(OC(=O)c3ccc(OC)cc3)C(=O)C2=CN1CCc1ccccn1 (centres undefined),inactive,
N#CCCn1cc(C(=O)Nc2ccc([N+](=O)[O-])cc2)c(-c2cccs2)n1,"inconclusive [inhibitor, single point]",
Cc1ccccc1OCC(O)Cn1c(=N)n(Cc2ccccc2)c2ccccc21 (centres undefined),"inconclusive [activator, single point]",
CC(=O)Nc1cccc(NC(=O)CSc2ncc(-c3ccc(Cl)cc3)n2Cc2ccco2)c1,"inconclusive [inhibitor, single point]",
Cc1cc(C)c2nc(NC(=O)c3ccc4c(=O)n5c(nc4c3)CCCCC5)sc2c1,inactive,
O=C1c2ccccc2C(=O)N1CC(O)CNc1ccc(Br)cc1 (centres undefined),"inconclusive [activator, partial curve]",
COc1ccc(S(=O)(=O)c2c(O)c(C)cc(NS(=O)(=O)c3ccc(Cl)cc3)c2C(C)C)cc1,"inconclusive [inhibitor, partial curve]",
COC(=O)c1ccccc1NC(=S)NC(=O)COc1ccccc1,inactive,
COc1cc(C(c2nnnn2C(C)(C)C)N2CCN(c3nc4ccccc4s3)CC2)ccc1O (centres undefined),"inconclusive [inhibitor, single point]",
COc1ccc(N(C)C(=O)c2nn(-c3ccc(C)cc3)c(=O)n(C)c2=O)c(OC)c1,"inconclusive [activator, single point]",
Cc1ccnc(NS(=O)(=O)c2cccc([N+](=O)[O-])c2)c1,"inconclusive [activator, full curve]",
Cn1cccc1/C=C1\Cc2ccccc2C1=O,inactive,
COc1ccc(NC(=S)N/C(=N/S(=O)(=O)c2ccc(C)cc2)c2ccccc2)cc1,inactive,
CC1C/C(=C/c2ccccn2)C(=O)/C(=C/c2ccccn2)C1 (centres undefined),active: 8.91 µM,
COc1ccc(NS(=O)(=O)c2ccc(N/N=C/c3ccc(N4CCOCC4)cc3)c([N+](=O)[O-])c2)cc1,"inconclusive [activator, full curve, poor fit]",
CC(C)Oc1ccc(C(=O)N2CCN(c3nc4c(F)cc(F)cc4s3)CC2)cc1,"inconclusive [inhibitor, partial curve, poor fit]",
O=c1c(N2CCN(c3ccccc3)CC2)csc2ccc(Cl)cc12,inactive,
N#CC1=C(N)SC(N)=C(C#N)C1c1cccc(Oc2ccccc2)c1,inactive,

SMILES,Potency,"activity, negative = inhibition"
COc1ccc(NC(=O)c2oc3ccc(S(=O)(=O)N4CCCCC4)cc3c2C)cc1Cl,"inconclusive [inhibitor, partial curve]",
O=c1cc(-c2ccccc2O)oc2c(O)c(O)ccc12,active: 12.6 µM,
CCC/C(O)=C1\C(=O)CC(C)(C)CC1=Nc1ccc(OC)cc1OC,inactive,
C=CCN1c2ccccc2[C@]23C[C@@H](C(=O)OC)N(S(=O)(=O)c4ccc(Br)cc4)C2=NC(C(=O)OC)=C(C(=O)OC)[C@H]13,,inactive: -8.19% [at 11.6 µM]
C=CCN(c1cccc(C(F)(F)F)c1)S(=O)(=O)c1cccc(C(=O)OCC(=O)NC(N)=O)c1,"inconclusive [inhibitor, single point]",
COc1cc2c(=O)n(Cc3ccco3)c(=O)n(CC(=O)Nc3ccc(F)cc3)c2cc1OC,"inconclusive [inhibitor, single point]",
CC(=O)OCC1(C)CN(c2ccccc2)NC1=O (centres undefined),"inconclusive [inhibitor, single point]",
CCN(CC)S(=O)(=O)c1ccc(NC(=O)c2cc(-c3ccccc3)nc3ccccc23)cc1,"inconclusive [inhibitor, partial curve, poor fit]",
Cn1cnc2c(NCc3ccccc3)nc(NCCO)nc21,"inconclusive [inhibitor, single point]",
CCOc1ccc(N(CC(=O)Nc2ccc3c(c2)OCCO3)S(=O)(=O)c2c(C)noc2C)cc1,"inconclusive [inhibitor, single point]",
O=C(COC(=O)c1ccc(-c2ccc([N+](=O)[O-])cc2)o1)NC(=O)NC1CCCCC1,"inconclusive [activator, single point]",
COc1ccc(-c2nc(SCC(=O)Nc3ccccc3)c(-c3ccc(F)cc3)[nH]2)cc1OC,"inconclusive [activator, partial curve]",
C=CCOC(=O)NC(c1ccc(F)c(F)c1)C(C(=O)CCl)C(=O)OC (centres undefined),"inconclusive [inhibitor, single point]",
O=C(Cn1c(=O)n(-c2ccccc2)c(=O)c2ccc(C(=O)NCc3ccc4c(c3)OCO4)cc21)Nc1ccc(F)cc1,"inconclusive [inhibitor, partial curve]",
N#CSCC(=O)c1cccc2ccccc12,"inconclusive [inhibitor, partial curve]",
COc1ccc(NCc2cc3cc4c(cc3n(CC(=O)Nc3cccc(F)c3)c2=O)OCO4)cc1,"inconclusive [activator, partial curve]",
CCOC(=O)C1=C[C@@]2(CC)CCCN3CCc4c(n1c1ccccc41)C32 (some centres undefined),inactive,
COc1ccc(/C=C2\COc3ccccc3C2=O)cc1OC,inactive,
CCCCn1c(O)c(/C=C2\C=NN=C2c2ccccc2)sc1=S,active: 11.2 µM,
Cc1c(CCOC(=O)c2ccc(N3CCOCC3)c([N+](=O)[O-])c2)sc[n+]1CC#N,"inconclusive [inhibitor, partial curve]",
